In the RNAGym collection of RNA variant scans (doi:10.1093/nar/gkz1192) one finds self-cleavage data, which are given here for 83 variants.

B1: CPEB3 Ribozyme (parent)
chain: UAACAGGGGGCCACAGCAGAAGCGUUCACGUCGCAGCCCCUGUCAGAUUCUGGUGAAUCUGCGAAUUCUGCUGUAUAUCUC

The source gives no read counts; variants with many changes may rest on few reads.

This data set covers variants of B1. In words: self-cleavage, relative activity (ratio to wild type); higher = more cleavage; in vitro, sequencing. The method in brief: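 Relative activity was defined as the cleaved/total read fraction for a variant divided by the same fraction for the unmutated ribozyme. CPEB3 self-cleaving ribozyme libraries were made by rounds of error-prone PCR, barcoded, and transcribed in vitro with T7 RNA polymerase for 5 hours at 37°C, and cleavage ran through transcription plus a 15 min DNase I step before EDTA. Illumina sequencing of template-switched reverse transcripts gave the reads, and DNA sequencing mapped the barcodes. Averages come from three batches, using variants with at least 5 reads.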
Take G16C A28G U41C: the self-cleavage is 0.07.

As to A18G A20U A35U, the self-cleavage came out at 0.28.

For the variant A18G G36U U43A C62U, the self-cleavage worked out at 0.11.

In the case of A18G A64G U69C U74C A75U, the self-cleavage was determined as 0.94.

G16C U25A U41A U49C: the self-cleavage was determined as 0.15.

Regarding A18G G33A A47U, the self-cleavage was found to be 0.12.

A18C G42A U72C C79U: the self-cleavage turned out to be 0.46.

As to G16U A45G U54A U69C U74A, the self-cleavage was found to be 0.07.

As for A18G U41A G70A U72C, the self-cleavage worked out at 0.23.

For C17G A45U U49C U78C, the self-cleavage was found to be 0.05.

Regarding A18G U26C C68A U69C U80A, the self-cleavage was 0.2.

Take A18G A45G G46A: the self-cleavage worked out at 0.06.

A18C U48A U60C: the self-cleavage is 0.08.

As to G16U A18G A47U U54A G63U, the self-cleavage turned out to be 0.1.

A18G C29U U49C A57U U66C U69A: the self-cleavage was found to be 0.12.

In the case of C17G C34A U48C A57G, the self-cleavage came to 0.2.

Turning to A18G A21G A45U U48C G63U U78C, the self-cleavage was found to be 0.04.

In the case of A18G U41C A65G, the self-cleavage stood at 0.36.

With A18C A28U A35G C39G U43C, the self-cleavage was 0.04.

For the variant G16U A28G A35G U41C, the self-cleavage came to 0.33.

For A18G A35G U41A A45G U67G, the self-cleavage was determined as 0.4.

Turning to A18G A20G U25A, the self-cleavage amounted to 0.36.

Take A18G A45U U51C U60C: the self-cleavage was 0.11.

A18G U41A U48C U60C U80A: the self-cleavage stood at 0.2.

Take A18G A28G C38A A45U: the self-cleavage turned out to be 0.13.

For the variant A18G G36A U49C A57G A77C, the self-cleavage stood at 0.07.

With A18C U25C A35G U51A, the self-cleavage turned out to be 0.4.

As for C17U U31C A45G A47G, the self-cleavage came out at 0.13.

Consider A18G A20G U25C U41A U60A A77U, for which the self-cleavage was 0.23.

A18G A21G G33A U41A: the self-cleavage came to 0.29.

As to G16U G33C A45G, the self-cleavage is 0.04.

With A18G G33A A35G, the self-cleavage stood at 0.24.

As to C17U A20G A77G, the self-cleavage stood at 0.5.

C17U U26C C34U: the self-cleavage turned out to be 0.39.

Consider A18G A28G U60C C68U, for which the self-cleavage amounted to 0.08.

Turning to A18G G30U A45G A65G U74C, the self-cleavage was determined as 0.19.

Take G16U G46A U54C U60C: the self-cleavage amounted to 0.04.

In the case of A18C U67C U72G G73U, the self-cleavage worked out at 0.2.

Regarding C17A A18G C27A U72A, the self-cleavage was 0.22.

Consider A18G U26A U31C U72A, for which the self-cleavage worked out at 0.09.

On to A18G U25A A35G U48C U51A, for which the self-cleavage is 0.21.

As to A18G A35G C37A U41C G61U A77G, the self-cleavage was found to be 0.25.

C17G A21G U25C U31A U54C U58C: the self-cleavage came to 0.05.

Consider A18G A28U U69G, for which the self-cleavage turned out to be 0.21.

For the variant A18C U25A U43C U51G, the self-cleavage stood at 0.09.

With G16U A45G U80C, the self-cleavage is 0.13.

Take C17U A28U C50U U51G U80C: the self-cleavage came to 0.27.

As to A18G A28G U48C A56U U67A, the self-cleavage is 0.05.

Regarding A18G C44U U66A, the self-cleavage turned out to be 0.07.

Take A18G A20G U51A: the self-cleavage was 0.32.

Consider C17G A20G U26C G53A, for which the self-cleavage was determined as 0.26.

Take A18G A45G A56G U72A U78C: the self-cleavage came to 0.06.

As for A18G A20C G73A, the self-cleavage was found to be 0.49.

Turning to A18G A47G G61U U72C, the self-cleavage came out at 0.2.

For the variant A18C U41C U43C U51C A56G, the self-cleavage came to 0.11.

As to A18G C23U U78A, the self-cleavage turned out to be 0.12.

In the case of G16C U31C A75G, the self-cleavage is 0.19.

Turning to C17U A21G U26A A57G U69C, the self-cleavage came to 0.06.

Turning to A18G U43C U51C A57G U67A, the self-cleavage was 0.13.

Take A18C U43C C44U U48C U78C: the self-cleavage turned out to be 0.01.

With A18G A45G A57G U74C, the self-cleavage is 0.64.

On to A18G C38A U72G, for which the self-cleavage is 0.03.

For C17U U41A U67G C68A, the self-cleavage is 0.12.

With A18G A56G U72A U74A U78C, the self-cleavage worked out at 0.24.

Consider A18G A28G U41A A47U U66A, for which the self-cleavage is 0.05.

In the case of A18G A56U U69A U74C, the self-cleavage came out at 0.28.

For A18C A21U U31C U74C A77G, the self-cleavage was determined as 0.21.

In the case of C17U U31C U72G, the self-cleavage was found to be 0.34.

For A18G A47G A65U, the self-cleavage worked out at 0.36.

As to A18G C34G U78G, the self-cleavage was found to be 0.13.

Consider A18G U41C U43A, for which the self-cleavage is 0.33.

For A18G A28G U54G A56U A57G A77U, the self-cleavage turned out to be 0.11.

Consider A18G A57G U80A, for which the self-cleavage was determined as 0.83.

For C17U A47G U54A U60C, the self-cleavage came to 0.17.

Take A18G A21G U25C: the self-cleavage was determined as 0.45.

With A18G U41G A57G, the self-cleavage is 0.08.

Consider A18G A21G A47U, for which the self-cleavage is 0.05.

Take A18G G30A A56U A65G: the self-cleavage was 0.06.

Consider A18G G19C C23U U66C U69C A75U, for which the self-cleavage came out at 0.08.

For C17G A18G A20G U26C A28G A35G G53A, the self-cleavage is 0.05.

As to A18G U41C U48C A57G A64G, the self-cleavage worked out at 0.4.

As for G16C U25C U43C U49C, the self-cleavage is 0.08.

For G16U A21G C37U C38A U49C, the self-cleavage was 0.1.
